# In PubChem BioAssay AID686978 (National Center for Advancing Translational Sciences (NCATS), 2013):
# Values joined by “and” are separate entries in the source; they are usually repeats but may differ in a detail not shown here. Identical values can stand only once. The whole screen tested about 420,000 compounds, of which about 64,000 (15%) were called active. Inconclusive results, whose numbers are uncertain, are shown with a selection of clear calls. Calls follow the shape of the dose curve; as a rule, active = well fitted inhibition curve with a large enough effect; inconclusive = small, poorly fitted or top-dose-only effect; inactive = flat fitted curve, though single readings scatter. Where the call is inconclusive, the potency comes from a doubtful curve fit.
# Test: qHTS for Inhibitors of human tyrosyl-DNA phosphodiesterase 1 (TDP1): qHTS in cells in absence of CPT; also: nearly all actives have a fitted effect of over 55% in size
# Conditions: DT40 Tdp1-/- hTDP1 cells, no CPT, ATP luminescence, 48 h; activity change, negative = growth inhibition: at 46.2 µM (top of the series) unless noted
# How it was run: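 Readout: luminescence from CellTiter-Glo after 30 min in the dark at RT. Cells: DT40 Tdp1-/- with stable hTDP1, 400/well. Exposure: compounds alone, ≥48 hr, 37 °C.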
# % is scaled to controls: 0 for no effect and ±100 for the full control effect; potency is read from the fitted curve at half-maximal effect; tags tell the direction and shape of the fitted curve.
Compound,Potency,"activity change, negative = growth inhibition"
O=C(Nc1ccccc1C(F)(F)F)c1cccn(Cc2ccccc2)c1=O,active: 18.4 µM,
C=CC1CN2CCC1CC2[C@@H](OC(=O)c1ccc(OC)cc1)c1ccnc2ccccc12 (some centres not stated),"inconclusive: 18.4 µM [inhibitor, single point]",
O=P(NS(=O)(=O)c1ccc(Cl)cc1)(Oc1ccccc1)Oc1ccccc1,,inactive: 3.77%
COC(=O)C1=C(c2ccc3ccccc3c2)C[C@@H]2CC[C@H]1N2C(=O)NCc1ccc(F)cc1,active: 16.4 µM,
O=C(c1cccn2c(=O)c3cc(Cl)ccc3nc12)N1CCC2(CC1)OCCO2,,inactive: -11.8%
Cc1ncsc1CCCl,inactive,
ClCCN(CCCl)c1ccc(-n2cnc3c(Cl)ncnc32)cc1,active: 6.51 µM,
CCOC(=O)C1(c2ccccc2)Oc2ccccc2C(c2ccc(OC)cc2)=C1C(=O)OC (configuration not stated),"inconclusive: 18.4 µM [inhibitor, single point]",
Cc1cc(=O)oc2cc(OCC(=O)N3CCN(Cc4ccccc4)CC3)ccc12,"inconclusive: 29.1 µM [inhibitor, single point]",
O=c1c2ccccc2nc(Cc2ccccc2)n1-c1ccc(O)cc1,"inconclusive: 9.2 µM [inhibitor, partial curve]",
CN1CC[C@]23c4c5ccc(O)c4OC2[C@H](O)C=CC3[C@H]1C5 (some centres not stated),,inactive: -2.91%
CC(=O)OC1CC[C@]2(C)C(CCC3C2CC[C@]2(C)C(C4=CC(=O)OC4)C(OC(C)=O)CC32O)C1 (some centres not stated),,inconclusive: -30.5% [inhibitor]
CCOc1ccc(CCNC(=O)c2ccc(CS(=O)(=O)c3ccccc3C)o2)cc1OCC,active: 14.6 µM,
CN1CC=C2C(C#N)=C(N)C(C#N)(C#N)C(c3ccncc3)C2C1 (configuration not stated),"inconclusive: 14.6 µM [inhibitor, partial curve]",
C#CCN1C(=O)C2(C(C#N)=C(N)OC(C)=C2C(=O)OCc2ccccc2)c2ccccc21 (configuration not stated),active: 23.1 µM,
Cc1ccc(S(=O)(=O)N2CCC(=O)N(CCOC(=O)Nc3cccc(Cl)c3)CC2)cc1,active: 20.6 µM,
NC(=O)C1(N2CCCCC2)CCN(Cc2ccccc2)CC1,,inactive: -13.6%
COC(=O)[C@H](Cc1ccccc1)N(Cc1ccccc1)S(=O)(=O)N(Cc1ccccc1)[C@@H](Cc1ccccc1)C(=O)OC,active: 11.6 µM,
CC(c1ccc(F)cc1)n1cc(C(=O)NCc2ccc3c(c2)OCO3)nn1 (configuration not stated),,inactive: -10.3%
CCOc1ccc(/C=C/C(=O)C(C(N)=O)=C2SCCS2)cc1,"inconclusive: 16.4 µM [inhibitor, partial curve]",
CCOC(C(=O)OCC(O)CN(CC)CC)(c1ccccc1)c1ccccc1 (configuration not stated),"inconclusive: 29.1 µM [inhibitor, single point]",
Cc1nc2cc(C(F)(F)F)ccc2n1C1CCN(Cc2nnnn2Cc2ccc3c(c2)OCO3)CC1,active: 16.4 µM,
CCOC(=O)c1sc2ccccc2c1NC(=O)c1coc2ccccc2c1=O,"inconclusive: 29.1 µM [inhibitor, single point]",

Compound,Potency,"activity change, negative = growth inhibition"
CCCCN(Cc1ccccc1)C1CCN(CCc2ccccc2)CC1,"inconclusive: 25.9 µM [inhibitor, single point]",
CCc1ccc(CN2CCN(Cc3cc(Br)ccc3O)CC2)cc1,"inconclusive: 16.4 µM [inhibitor, single point]",
C=CCN1CC[C@@]23c4c5ccc(O)c4O[C@H]2/C(=N\N=C2/CC[C@@]4(O)[C@H]6Cc7ccc(O)c8c7[C@@]4(CCN6CC=C)[C@@H]2O8)CC[C@]3(O)[C@@H]1C5,active: 29.9 µM,
CC(C)c1c(C(=O)N(C)Cc2cccc3ncccc23)cnn1-c1nccc(-c2ccccc2F)n1,active: 8.2 µM,
CC1CCCN(c2ccc(C(=O)N3CCC4(CC3)OCCO4)cc2[N+](=O)[O-])C1 (configuration not stated),"inconclusive: 23.1 µM [inhibitor, single point]",
COC(=O)C1=C(c2cc3ccccc3o2)C[C@@H]2CC[C@H]1N2C(=O)N1CCCCC1,active: 2.31 µM,
O=c1c(C=NCc2cccs2)c(O)n(C2CCCCC2)c(=O)n1C1CCCCC1,"inconclusive: 16.4 µM [inhibitor, partial curve]",
NC(=O)c1c(NC(=O)c2ccc(S(=O)(=O)N(CCCl)CCCl)cc2)sc2c1CCCCC2,active: 14.6 µM,
Fc1cccc(-c2ccc3c(c2)CN(c2cccc(Cl)c2)Cc2cnnn2-3)c1,"inconclusive: 29.1 µM [inhibitor, single point]",
O.O.O.O=C([O-])C(O)C(O)C(=O)[O-].O=C([O-])C(O)C(O)C(=O)[O-].[K+].[K+].[Sb].[Sb] (configuration not stated),,inactive: -28.7%
Cc1ccc(-n2c(C)cc(/C=C3\C(=O)NC(=O)N(C)C3=O)c2C)cc1C,"inconclusive: 29.1 µM [inhibitor, single point]",
CCN1C[C@]2(CO)CC[C@H](OC)[C@@]34C5C[C@H]6[C@H](OC)C5[C@](O)(C[C@H]6OC)[C@@H](C(OC)C23)[C@@H]14 (some centres not stated),,inactive: -20.1%
CCCCn1c(=O)c(C(=O)NCc2ccccc2Cl)c(O)c2ccccc21,"inconclusive: 25.9 µM [inhibitor, single point]",
O=C(Cc1c(Cl)cccc1Cl)N1CCN(Cc2ccccc2)CC1,"inconclusive: 0.58 µM [inhibitor, full curve]",
CCOc1ccc(CN2CCN(C(=O)Cc3ccccc3)CC2)cc1,,inactive: -24%
COc1cc(C=C2C(=O)NC(=O)NC2=O)cc(OC)c1OC,,inactive: -0.843%
CCc1ccc(C2C(C(=O)Nc3ccccc3OC)=C(C)Nc3nc(SCc4ccccc4)nn32)cc1 (configuration not stated),active: 3.66 µM,
O=P(Nc1cccnc1)(Oc1ccccc1Cl)Oc1ccccc1Cl,,inactive: -0.0209%
Clc1ccc2[nH]c3c(c2c1)CCNC3,"inconclusive: 29.1 µM [inhibitor, single point]",
COc1ccc(CCn2c(O)c(C=Nc3ccc(NC(C)=O)cc3)c(=O)[nH]c2=O)cc1OC,,inactive: -19.1%
O=C(NC12CC3CC(CC(C3)C1)C2)OC1CN2CCC1CC2 (configuration not stated),"inconclusive: 29.1 µM [inhibitor, single point]",
CC(O)(CS(=O)(=O)c1ccc(F)cc1)C(=O)Nc1ccc(C#N)c(C(F)(F)F)c1 (configuration not stated),active: 10.6 µM,
C[C@H](CO)N1C[C@H](C)[C@@H](CN(C)C(=O)Nc2ccccc2)Oc2c(NC(=O)Nc3ccccc3)cccc2C1=O,"inconclusive: 20.6 µM [inhibitor, single point]",

Compound,Potency,"activity change, negative = growth inhibition"
COc1ccc(CN2CC=C(c3ccc(F)cc3)CC2)cc1Br,active: 29.1 µM,
O=C(Nc1nccs1)c1c(O)c2c(n(Cc3ccco3)c1=O)CCCC2,"inconclusive: 29.1 µM [inhibitor, single point]",
CCCOC(=O)Nc1ccc([As](=O)(O)O)cc1NC(=O)OCCC,,inactive: -27%
Cc1cc(-c2cc(C)c(N)c(C)c2)cc(C)c1N,,inactive: -14.2%
CC1CC[C@@]2(OC1)O[C@@H]1[C@@H](O)[C@H]3C4CC[C@H]5C[C@@H](O[C@@H]6O[C@H](CO)[C@H](O[C@@H]7O[C@H](CO)[C@@H](O)[C@H](O[C@@H]8OC[C@@H](O)[C@H](O)[C@H]8O)[C@H]7O[C@@H]7O[C@H](CO)[C@@H](O)[C@H](O[C@@H]8O[C@H](CO)[C@@H](O)[C@H](O)[C@H]8O)[C@H]7O)[C@H](O)[C@H]6O)[C@H](O)C[C@]5(C)C4CC[C@]3(C)[C@H]1[C@@H]2C (some centres not stated),active: 6.68 µM,
CCOc1cc2[nH]c(=O)n(CCCCC(=O)N3CCN(c4ccccc4)CC3)c(=O)c2cc1OCC,active: 5.17 µM,
O=C1CC23c4ccccc4N4C(=O)CC5OCC=C6CN1C2CC6C5C43 (configuration not stated),"inconclusive: 29.1 µM [inhibitor, single point]",
COc1ccc(CCNCc2cc(OC)cc(OC)c2)cc1,"inconclusive: 23.1 µM [inhibitor, single point]",
CC1O[C@@H](O[C@@H]2C(O)C[C@H](O[C@@H]3C(O)C[C@@H](OC4CC[C@@]5(C)C6CC[C@]7(C)C(C8=CC(=O)OC8)CC[C@@]7(O)C6CC[C@@H]5C4)OC3C)OC2C)CC(O)[C@H]1O (some centres not stated),active: 0.731 µM,
Cc1ccc(/C=N/n2c(-c3ccccc3)csc2=S)cc1,"inconclusive: 33.5 µM [inhibitor, single point]",
CN1C2CCC1CC(OC(c1ccccc1)c1ccc(Cl)cc1)C2 (configuration not stated),active: 4.73 µM,
N#Cc1cc2c(nc1SCC(=O)Nc1ccc(Cl)c(C(F)(F)F)c1)C1CCN2CC1,active: 11.6 µM,
CNC(=O)Oc1cccc2ccccc12,"inconclusive: 29.9 µM [inhibitor, single point] and inconclusive: 32.6 µM [inhibitor, partial curve]",
COc1ccccc1CC1/C(=N/O)C2CCN1CC2 (configuration not stated),,inactive: 2.35%
COc1cccc(C2=CC(c3cc(Br)ccc3F)n3nnnc3N2)c1 (configuration not stated),active: 1.3 µM,
Cc1noc(C)c1C(=O)N1CCC2(CCCN(CC(C)C)C2)CC1,,inactive: 2.43%
COc1ccc(-c2nnc3n2N(C(C)=O)C(c2ccc(Cl)c(Cl)c2)=C(C(C)=O)S3)cc1,active: 4.11 µM,
O=C1Nc2ccccc2/C1=C/c1cnc[nH]1,active: 18.4 µM,
S=C(NCCc1ccccc1)N1Cc2cc(Br)ccc2-n2nncc2C1,"inconclusive: 29.1 µM [inhibitor, single point]",
COc1ccc(C2C=C(C)Oc3c2c(=O)oc2ccccc32)cc1OC (configuration not stated),"inconclusive: 18.4 µM [inhibitor, single point]",
CO[C@@H]1[C@@H](O[C@@H]2O[C@H](C)[C@@H](O[C@H]3C[C@@](C)(O)[C@@H](O)[C@H](C)O3)[C@H](N(C)C)[C@H]2O)[C@@H](CC=O)C[C@@H](C)[C@@H](O[C@@H]2CC[C@H](N(C)C)[C@@H](C)O2)/C=C/C=C/C[C@@H](C)OC(=O)C[C@H]1OC(C)=O,"inconclusive: 3.76 µM [inhibitor, full curve]",
